Experimental findings from ChEMBL document CHEMBL4888484, “Replenishing the malaria drug discovery pipeline: Screening and hit evaluation of the MMV Hit Generation Library 1 (HGL1) against asexual blood stage Plasmodium falciparum ,using a nano luciferase reporter read-out” (2022) are described below.

The whole screen tested about 150,000 compounds, of which about 540 (0.36%) showed an effect of 50% or more. The list shows a part of the results.

One may read the % Inhibition as the drop in the measured response relative to a control, in per cent.

The subject of this assay is Plasmodium falciparum. The experiment in a line: Primary screen in NF54 nanoGlo assay, in single point, at 2uM, 72h; a lower Z score goes with more inhibition. It counts as functional, Erythrocyte. The note with it: timepoint 72 hour.
Regarding `CCCCN1CCc2[nH]cnc2[C@H]1c1cc(C)ccc1-n1cccn1`, the “% Inhibition” value was -8% and the Z score amounted to 0.74.

As for `Cc1ccc(OC/C=C/Cn2ccnc2)cc1C`, the “% Inhibition” value is given as -5% and the Z score turned out to be 0.58.

For `CCOc1ccc(CNC(=O)[C@H]2CCCN(c3nccnc3Oc3ccc(C)cc3)C2)cc1OCC`, the “% Inhibition” value stood at 6% and the Z score was -0.68.

In the case of `O=C(NCc1cccc(CO)c1)C1CCCCC1C(F)(F)F` (stereo unspecified), the “% Inhibition” value was 0% and the Z score is -0.04.

Consider `CCN1c2cc(C)ccc2-n2cccc2C12CCN(C(=O)Nc1ccc(Br)cc1F)CC2`, for which the “% Inhibition” value is reported as -16% and the Z score is 3.06.

`COc1ncccc1CNc1c(C#N)cnc2c(C)cccc12`: the “% Inhibition” value was -10% and the Z score is 1.53.

For `Cc1cccc2c1ncn1c(=O)n(CC(=O)Nc3ccc4c(c3)OCCO4)nc21`, the “% Inhibition” value was -1% and the Z score is listed as 0.17.

On to `CCOCC1(CNC(=O)[C@H](C)N2CCCC2=O)CCC1`, for which the “% Inhibition” value is 3% and the Z score is -0.56.

As to `Cc1cnc(NC(=O)NC[C@H]2CCCO2)s1`, the “% Inhibition” value is -2% and the Z score was found to be 0.38.

For the compound `CN(Cc1cn(C)nn1)C(=O)NCc1cc(Cl)sc1Cl`, the “% Inhibition” value was -12% and the Z score came out at 2.13.

As to `CC(C)N(C)c1ccc(C=Cc2cnc(C(=O)O)cn2)cn1`, the “% Inhibition” value is listed as -1% and the Z score came out at 0.18.

Regarding `CN(CC#CCNC(=O)NC(C)(C)C)Cc1ccccc1`, the “% Inhibition” value is recorded as 6% and the Z score is listed as -0.91.

With `CCc1ncc(C(=O)N2CCN(S(C)(=O)=O)CC2)cn1`, the “% Inhibition” value is -5% and the Z score is 0.83.

As to `CCOCCCC(=O)N[C@@H](c1ccccc1)c1ccc2nc(C(F)(F)F)[nH]c2c1`, the “% Inhibition” value is listed as 11% and the Z score is listed as -1.97.

Take `Cc1nnc(CNS(=O)(=O)c2ccc(C(=O)N3CCC[C@@H]3C)cc2)o1`: the “% Inhibition” value was -2% and the Z score is reported as 0.3.

With `CCCCCNC(=O)c1cccc(Oc2ccnc(-c3cccc(F)c3)n2)c1`, the “% Inhibition” value is -3% and the Z score stood at 0.62.

In the case of `Cc1ncccc1CNC(=O)Nc1ccnn1[C@@H](C)CC(C)C`, the “% Inhibition” value is reported as -8% and the Z score was 1.02.

For the compound `CCC(C)c1nc(C2CC(=O)N(Cc3ccccc3)C2)no1` (stereo unspecified), the “% Inhibition” value is on record as -3% and the Z score is on record as 0.48.

Turning to `CCc1cc(CNc2nc3c(cc2C(N)=O)CCC3)on1`, the “% Inhibition” value was -4% and the Z score was found to be 0.51.

In the case of `O=C(NCCc1nccn1C(F)F)C(=O)Nc1c(F)cccc1F`, the “% Inhibition” value is given as -3% and the Z score is recorded as 0.57.

As for `CC(C)[C@@H](O)CN1CCC2(CCc3ccccc3C2=O)CC1`, the “% Inhibition” value turned out to be 2% and the Z score is -0.37.

For `Cc1cccc(NC(=O)[C@]2(C)CCCCC(=O)N2)c1`, the “% Inhibition” value was determined as 4% and the Z score is listed as -0.45.

As for `COc1cccc(NC(=O)O[C@H]2COCCN(c3nc4ccccc4o3)C2)c1`, the “% Inhibition” value was 18% and the Z score is reported as -2.15.

As for `Cn1cnnc1[C@@H]1CCCCN1C(=O)CCc1c[nH]c2ccccc12`, the “% Inhibition” value is -3% and the Z score amounted to 0.38.

For the compound `O=C(c1cn2cccnc2n1)N1CCC[C@H](c2[nH]ncc2Cc2ccccc2)C1`, the “% Inhibition” value was -7% and the Z score is on record as 1.35.

In the case of `CCNS(=O)(=O)C1CCN(C(=O)NC2C3CCc4ccccc4C32)C1` (stereo unspecified), the “% Inhibition” value came out at 0% and the Z score is reported as -0.04.

On to `COc1ccccc1CNC(=O)c1ccc(S(=O)(=O)c2ccc(C)cc2)s1`, for which the “% Inhibition” value is -6% and the Z score amounted to 0.57.

Turning to `CCC(=O)Nc1cc(C(=O)OC)cc(C(=O)OC)c1`, the “% Inhibition” value was -9% and the Z score came to 1.08.

For `CCN(C(=O)NC[C@H]1COc2ccccc2O1)C1CCCC1`, the “% Inhibition” value was -10% and the Z score is 1.35.

Regarding `CC[C@@H]1C(=O)NCCCN1Cc1nnc(-c2ccc(Cl)cc2)n1C`, the “% Inhibition” value is -1% and the Z score was determined as 0.15.

Regarding `COc1cc(C(=O)N(Cc2ccccc2C(F)(F)F)C2COC2)ccc1OC(F)F`, the “% Inhibition” value is on record as -7% and the Z score is on record as 0.63.

For the compound `Cc1nc(C(C)C)oc1C(=O)N1CCC(OC2CCC2)CC1`, the “% Inhibition” value is given as -7% and the Z score was found to be 0.73.

With `Cc1ccccc1Cc1nc([C@H]2CCOC2)nn1CCO`, the “% Inhibition” value was 6% and the Z score is -0.79.

Consider `CC(NCC(C)(C)C)C(C)n1cccn1` (stereo unspecified), for which the “% Inhibition” value is on record as -1% and the Z score worked out at 0.12.

Consider `CNc1cc(C)nc(N2C[C@H](NS(C)(=O)=O)[C@@H](C(C)C)C2)n1`, for which the “% Inhibition” value is given as -7% and the Z score came out at 0.88.

As to `CCOC(=O)N1CCN(C(=O)c2c(-c3ccc(Cl)cc3)c3cc(Cl)ccc3n2C)CC1`, the “% Inhibition” value was -6% and the Z score stood at 0.9.

Consider `Cc1cc(NS(=O)(=O)c2cnn3c2OCC(C)(C)C3)cnc1C`, for which the “% Inhibition” value was -2% and the Z score is listed as 0.42.

On to `CC(C)CC(=O)Nc1nc(C(=O)N(C)CCN(C)C)cs1`, for which the “% Inhibition” value is listed as -12% and the Z score is listed as 2.04.

Regarding `Fc1cc(Cl)ccc1OC[C@@H]1CCCN2CCCC[C@H]12`, the “% Inhibition” value was found to be 17% and the Z score was -2.29.

In the case of `COC[C@](C)(O)C(=O)NCC1CCCCCCC1`, the “% Inhibition” value is reported as -4% and the Z score is reported as 0.58.

As to `Cc1ccc(CCC(=O)N2CCC2)c(C)c1`, the “% Inhibition” value is on record as -8% and the Z score worked out at 0.89.

Turning to `O=C(c1ccco1)N1CCC(c2nc3ccccc3o2)CC1`, the “% Inhibition” value is -26% and the Z score was found to be 2.26.

Take `CC1CN(CC(C)(C)F)CCC1NC(=O)OC(C)(C)C` (stereo unspecified): the “% Inhibition” value is -7% and the Z score was found to be 1.2.
